Results on 44 sequences are retold here after the supplement of paper PMC11417369.

The other results are listed elsewhere or left out.

The test system of the assay is PF3D7_0420300 AP2 domain 1 (GST-tagged). In words: gcPBM binding intensity (ln(normalized median fluorescence intensity)); higher = stronger DNA binding. In a few lines:
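Binding of GST-tagged P. falciparum DNA-binding domains, expressed in E. coli and used at about 25 μg on average, was carried out for 1 h in 1× PBS containing 1% milk, 0.2 mg/ml BSA, 0.5% salmon testes DNA and 0.03% Triton X-100. The target was an Agilent 4 × 180k array of primer-extended double-stranded 36-bp intergenic genomic probes plus negative controls, read with Alexa488 anti-GST antibody at 488 nm. Binding intensity is the highest Masliner-normalised natural-log median intensity across replicate spots of either probe orientation.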
As to “AAAATAAATAAATACACACACACGAATATTTATATA [CACACA_site6892]”, the “gcPBM binding intensity (ln)” value worked out at 10.1.
As for “AAAAAAAAAAAAAAAAGTACACATCATTTTATGAAA [XGTACX_site1402]”, the “gcPBM binding intensity (ln)” value worked out at 8.94.
For “ATTATAAAAATATCGTGTACATATTTTTTAAAATAA [XGTACX_site5072]”, the “gcPBM binding intensity (ln)” value amounted to 8.91.
For “ATTATTTCAATTTTTTTTGTTTTTAAAAAAAAAAAT [CACACA_negctrl_site1387]”, the “gcPBM binding intensity (ln)” value was 8.75.
“GAAAACAAAATGGTAACACACAAATGTAAATAGTAT [CACACA_site2113]”: the “gcPBM binding intensity (ln)” value stood at 9.76.
Regarding “GATATATTTTATATATGTACATACAAGGGTAAATAT [XGTACX_site1202]”, the “gcPBM binding intensity (ln)” value is 9.4.
“AAAATAAACTATAGTACACACTTATTATTATGAAAT [CACACA_site5488]”: the “gcPBM binding intensity (ln)” value was 9.45.
As for “TCAATTAGACGAAAATGTACATATGTATATATTTTT [XGTACX_site5027]”, the figure is 9.19.
For the sequence “AAAATATGTAGCTACACACACATAAACAAAATAACA [CACACA_site1007]”, the “gcPBM binding intensity (ln)” value worked out at 9.99.
In the case of “ATTTTATAAAGGAAGTGTACTAATAAATTCAAATTA [XGTACX_site3922]”, the “gcPBM binding intensity (ln)” value turned out to be 8.98.
Regarding “AAGAAAAAATATACTTCACACATTTAATATATAATT [CACACA_site4919]”, the “gcPBM binding intensity (ln)” value was 9.26.
In the case of “AAAAAAAAAAAAAAATGTACAAATATATACATATAT [XGTACX_site935]”, the “gcPBM binding intensity (ln)” value amounted to 9.2.
As for “TCGATGTTGGTAGGATGTACGGTACCGGTAGTATTT [XGTACX_site4214]”, the “gcPBM binding intensity (ln)” value was determined as 9.44.
Take “AAAAAAGAATTGTGCACACACAAAAAATGTTCATAA [CACACA_site1103]”: the “gcPBM binding intensity (ln)” value worked out at 9.51.
In the case of “TAATGTTACACAAACTTTTCATTCTTTTTAATAAAT [TGCATGCA_negctrl_site331]” it was 9.1.
“ATATAATTATAAAATAAACACACATATATATTTATA [CACACA_site8039]”: the “gcPBM binding intensity (ln)” value came out at 9.48.
For “TTATTTATTTATAATTGTACATTGCAAATGAATTTA [XGTACX_site4083]”, the “gcPBM binding intensity (ln)” value is 8.76.
On to “ATATATATATATATATGTACATAGAGAAGTATCTTT [XGTACX_site4737]”, for which the “gcPBM binding intensity (ln)” value is 9.2.
Regarding “AACATTTTAAATTATACACACATTTTGAATATATAT [CACACA_site3470]”, the “gcPBM binding intensity (ln)” value came to 9.54.
Consider “TATACACCCAGACACACACACACACCCAAAAAAAAA [CACACA_site497]”, for which the “gcPBM binding intensity (ln)” value was 10.
Turning to “TGTTGTTGTAATTATTGTACGTTATGCGATTATTAT [XGTACX_site7005]”, the “gcPBM binding intensity (ln)” value amounted to 9.48.
As to “ATATATATATATATGTGTACATATAAGATAGAAGAA [XGTACX_site3198]”, the “gcPBM binding intensity (ln)” value came out at 9.68.
With “TATTTATTTATAAATGCATGTCGCTCTTTTTATTAC [TGCATGCA_site626]”, the “gcPBM binding intensity (ln)” value stood at 9.32.
“AACTATAAAAGTTTTACACACTGTTTTTAAATAATG [CACACA_site7686]”: the “gcPBM binding intensity (ln)” value was found to be 9.31.
On to “TTATGCATAAAAGGTGGTACTCCGTATATACATTCT [XGTACX_site4354]”, for which the “gcPBM binding intensity (ln)” value amounted to 9.24.
For “ATTATTATAGATATAACACACATAATTACATACTTA [CACACA_site6837]”, the “gcPBM binding intensity (ln)” value turned out to be 9.47.
On to “AAAAGTAAAAAAAGCACACACGAAAAAAAATAAAAA [CACACA_site5264]”, for which the “gcPBM binding intensity (ln)” value was 9.91.
For “TCCATAAATAATTGTAGTACACATACTATGTGACAT [XGTACX_site7268]”, the “gcPBM binding intensity (ln)” value was determined as 9.28.
As for “TATTAAAAAAAAAAATAAAAAAATAAAATAAAATAA [CACACA_negctrl_site580]”, the figure is 9; as for “TTTTTTTTTTTTATTTGTACACATTTTCATATTTTT [XGTACX_site4406]”, 9.23; as for “TATATTTACTCTAAGTGTACATATTATTTTATAATA [XGTACX_site2046]”, 9.13.
Take “TATATATATATGTGCACACATAAAGATATTATTTTT [CACACA_site3733]”: the “gcPBM binding intensity (ln)” value turned out to be 9.53.
On to “TAACACATAAATAAATATATACATATATATAAAATA [CACACA_negctrl_site375]”, for which the “gcPBM binding intensity (ln)” value amounted to 9.36.
On to “AATATATATATATATACATGCATATATTCCTTCCTT [TGCATGCA_site890]”, for which the “gcPBM binding intensity (ln)” value came out at 9.2.
“ATTCTTTTAAACAGTACACACACACCGATATATATA [CACACA_site8213]”: the “gcPBM binding intensity (ln)” value is 10.
In the case of “AAAAACTTATATGATACACACGATAAACAAAATAAA [CACACA_site1039]” it was 9.73; in that of “TTTGTGCCTATAAATTAACACACAGAAATATATAGA [CACACA_site8175]”, 9.26.
With “AATATATCATAATGATGTACAAGTAAAACCGTTACA [XGTACX_site4280]”, the “gcPBM binding intensity (ln)” value was 9.46.
In the case of “GATCTATATATCATTACACACTTGAATTACTTAAAA [CACACA_site21]” it was 9.33; in that of “CAAAAATACATTATAATAATATGCACAATAATAAAT [XGTACX_negctrl_site263]”, 9.6; in that of “ATAAAATAAAATTGGTGTACTTTTGATAAAATAAAA [XGTACX_site4264]”, 9.12.
For the sequence “GTGTATTTTGTGCGCACACACATGCAAAAAGAAATA [CACACA_site6660]”, the “gcPBM binding intensity (ln)” value is 9.55.
As to “GGTAGGTGAATATATACACACATATATTATATATAT [CACACA_site1984]”, the “gcPBM binding intensity (ln)” value came out at 9.53.
Consider “TACACATGTTTAAAATGTACGTTTTATAACACACAC [XGTACX_site8229]”, for which the “gcPBM binding intensity (ln)” value is 9.67.
